Reference: the supplement of paper PMC3334620
Over roughly 33,000 sequences, “E-score (-0.5 to 0.5)” has its median near -0.012; the highest 2% begin near 0.27. Some of the results follow.

biological target: T1, Vhr1 (UniProt P40522); experiment: PBM E-score (8-mer binding enrichment) (E-score (-0.5 to 0.5)); higher = stronger / more preferred TF binding; most listed sequences are background and not binding sites; details: protein concentration: 200 nM; construct: GST-full length
T1 sequence: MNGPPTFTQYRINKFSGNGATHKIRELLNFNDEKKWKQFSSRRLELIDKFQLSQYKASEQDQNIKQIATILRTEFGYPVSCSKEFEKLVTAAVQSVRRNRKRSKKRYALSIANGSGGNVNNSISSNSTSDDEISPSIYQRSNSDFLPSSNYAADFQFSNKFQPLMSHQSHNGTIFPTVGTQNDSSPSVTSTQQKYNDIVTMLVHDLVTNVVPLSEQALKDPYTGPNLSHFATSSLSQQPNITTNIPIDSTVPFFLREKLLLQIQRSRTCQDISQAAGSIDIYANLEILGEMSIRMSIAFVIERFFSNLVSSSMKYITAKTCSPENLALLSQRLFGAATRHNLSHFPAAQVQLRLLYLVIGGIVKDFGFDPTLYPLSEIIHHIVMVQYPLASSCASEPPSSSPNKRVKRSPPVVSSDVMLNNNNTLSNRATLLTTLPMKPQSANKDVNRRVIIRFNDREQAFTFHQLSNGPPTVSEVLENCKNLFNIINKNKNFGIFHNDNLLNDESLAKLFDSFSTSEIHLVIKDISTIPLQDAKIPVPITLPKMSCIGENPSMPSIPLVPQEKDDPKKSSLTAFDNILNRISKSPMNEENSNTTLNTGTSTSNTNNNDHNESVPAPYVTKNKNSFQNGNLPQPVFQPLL
Outline: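 Yeast transcription factors carrying a GST tag, as full-length proteins or DNA-binding domains, were produced by PURExpress in vitro transcription/translation. About 100-200 nM protein was applied to universal all-10-mer Agilent arrays, double-stranded by primer extension on fresh or once-stripped slides. Bound protein was detected with fluorescent anti-GST, and scans were normalised with masliner. The Universal PBM Analysis Suite gave each ungapped eight-base word, pooled with its reverse complement, an E-score, a modified Wilcoxon-Mann-Whitney statistic.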

Sequence	PBM E-score
AATTCATC	-0.292
GCCGAAGC	-0.137
AGGTGCCG	-0.0827
CCGTAGAG	-0.214
CGCTAAAC	-0.156
CAGTAAGC	0.0436
ATGCCCAG	-0.161
CGGGCATC	0.0347
GATAATAA	-0.0106
CGGAAGTA	-0.175
CCCCACCG	0.188
GATATTGC	0.0198
AGTCCGAA	-0.0324
ATAGTTGG	0.0627
CCCAAGGG	-0.227
GTGACGAA	-0.0752
ACCGGGAC	0.101
AATAAGAG	-0.0226
AGGAGTAC	-0.0429
AATTTTAT	-0.00812
CACCATTC	0.0568
ACCAATGA	0.189
ATTCAAAC	0.00299
ACGGGAGA	-0.101
ACAGGTTA	-0.0957

Sequence	PBM E-score
CCCAACCA	0.275
AGTAGTCG	0.292
TGCGTAAA	-0.0943
TATGCTCA	0.0368
ATGTCCAA	-0.0115
CCTTGCAA	-0.201
GCTGTGAA	-0.0735
GGGGGGAC	-0.167
CCGCTGAG	-0.122
ACTTGGAC	-0.0761
ACCTTCTC	-0.0296
ACCTGCCG	-0.0293
CAGTGATG	0.088
AAAAAATC	-0.258
AGAACACA	0.0953
AGGTTAGC	-0.19
CTATGTGA	0.257
CGAACATA	0.192
CAGTCAAG	0.0145
GGATCCCA	0.0078
GCACCTAC	-0.137
TAGACCAA	-0.0666
AGACATAG	0.0373
TCAATGAA	0.0609
ATTGCGCC	-0.0633

Sequence	PBM E-score
AGCGGCTA	0.0207
AGTTCGTG	0.154
CGTTGCTA	-0.00248
CTTAACGA	-0.0688
CGTGTTGA	0.155
AGCTATCG	-0.0401
CCAGCCAA	-0.119
AGCTCACT	0.073
GTCAGGCA	-0.0168
ACAAAGAG	-0.0915
CAGTCGGC	0.0497
CGGATACG	0.0224
ATCTACGG	0.00971
CGCGGCAA	-0.0486
GTACTTGA	-0.0469
CCTCGTAG	0.0494
ACTACATG	0.127
ATTTCATA	0.0613
GCCCGGCA	-0.139
ATGACGCA	0.126
CTCAACGA	-0.0668
ATGGGAGG	0.156
CGTGGCAC	-0.0853
CAGAGTCC	0.0441
CCCAGCTC	0.0439

Sequence	PBM E-score
GAATCCTC	-0.0437
CCCTAGCC	-0.184
CTTTAGGC	-0.378
ACGTACAA	0.0683
ATCGTCTC	0.0308
ACTACTAC	0.232
TGCATGCA	0.026
AGCTCGTA	-0.0698
GCTTTCCC	-0.0139
CTTGTACC	0.102
CGGGTGTA	-0.0398
TACAGCGA	-0.0721
AAATGGCT	-0.0733
ATTCAATG	0.044
AAGGTTAC	-0.106
CGTTCGAC	-0.139
ACCGACTC	0.34
AGAAATGA	-0.104
TACCAGAA	0.12
ATGACCCC	0.211
AAGGTCGG	0.0367
AGCTTCTA	-0.278
AATAAGTG	-0.0302
ACACATCT	0.147
CCCACTAA	0.139

Sequence	PBM E-score
CTATTACC	-0.0152
ACGGGTAC	-0.0194
GGGCTGAC	0.165
AAGTAGAG	-0.225
TAAAATGA	0.108
CCAGTGGC	-0.0267
CGTTCCAG	-0.239
TACAGAGA	-0.0449
ATCTCGGC	-0.0265
GCCCATTA	-0.039
CAAAAAAC	-0.0255
GACAAACC	-0.171
ACAATAAG	0.0477
GCAACTGC	-0.0177
CCAGAGAA	-0.00793
ACTTGGGG	-0.0619
AATGCCCA	-0.0815
CGCGGCCG	-0.0229
GTGCTTCA	0.126
AATGTACG	-0.225
AAGACAAT	-0.0357
CCTTCTAC	-0.226
AGTATAGA	0.189
ACAGTTCC	-0.00019
GGGAAGCA	-0.227

Sequence	PBM E-score
CGCCAGCC	0.131
ACACTGGC	0.175
CGGCGGAC	0.175
ACGCCCCA	0.112
CTTCTTGC	-0.138
CCAAGAGC	0.128
ATAGGCTC	-0.0945
CCGAAACG	-0.218
CCGGGAGA	-0.0126
CCCCAGTA	-0.205
GTCTTAAC	-0.164
CAATTTAC	-0.137
GATATGCC	-0.0589
CGAGAACA	0.0469
CCGTGGTC	0.0319
GGAAGCCA	-0.00802
CCGCACCA	0.105
CCGAGCAA	-0.0958
CAGATAGA	0.0142
CGTAGTGC	-0.0516
GACGACTA	0.162
ACACTATC	0.151
TCACACCA	0.17
CCTCTCCA	-0.234
CAGAATGC	-0.176

Sequence	PBM E-score
AGCCGGTC	-0.0859
GATCCACA	-0.00035
AAATTCCG	-0.216
TGCCGGAA	-0.0716
GCTGTTTA	-0.00255
TAAACTAA	0.0411
CGAAGAAA	-0.00244
AGTGATCC	0.151
CGTCTTCA	0.00489
ACGGGTGA	0.117
GCCCACGC	-0.271
CATAATTC	0.078
ACGAGTCA	0.43
AAATGTAC	0.0446
ATGCCGTC	-0.101
GCTTAATA	0.0178
AAACGGGC	-0.0616
TCACTCAA	0.0734
GCTTACCC	-0.243
ATATTTCG	-0.0136
AAGTATGC	-0.0799
ATTCGTTG	0.0936
GATGGGAC	-0.0486
GATGTAAC	0.0264
ATGGTCTG	0.18

Sequence	PBM E-score
CATTCGAA	-0.0673
GAATGAAA	-0.0321
CTTATAAG	-0.0388
ACTAGATG	0.0235
CGGTGTCA	0.0444
TCCGACAA	-0.0624
CCTGCCAC	-0.0185
CTTTTCGC	-0.0263
TCAAAACA	0.0993
AATTTGTC	-0.112
ATGCTCTA	-0.154
TATAAGAA	-0.237
CGGGTGAG	0.164
CAACTCCG	-0.0132
AGCTAAGC	-0.0385
ATCCGCAA	-0.149
AACGTAGA	0.0194
CTCTTGCC	-0.198
AACACTCC	-0.0208
AAAGCTCC	-0.0676
AACGGGTG	0.0256
ACCCGCTG	-0.0412
CCCCGGCG	0.199
CTCCGACC	0.159
CGATGGTC	-0.00779

Sequence	PBM E-score
CAGCAACA	0.14
ATCAATCG	0.0912
AGGCACCC	-0.152
CCGGGCAC	-0.0406
GAAGTCAC	0.269
CTCTCAAG	-0.14
ATTGTGCA	0.146
ATCGACTG	0.0924
TATTTACA	0.0242
CTCCCCCC	-0.0954
AGCTCTTC	-0.0932
ATTCGGAG	-0.00066
CCTTGTAG	-0.122
CATAATGA	0.175
GGGCCCGA	0.0795
CCTGCTTC	-0.226
CATATGCA	0.148
GGAAGGCC	-0.245
GTGCAAAC	-0.0932
